In US20050282843A1, “Therapeutic applications of 2-substituted 4-heteroarylpyrimidines” (priority 2002, published 2005):

Tests used:
[1] = target: CDK4/cyclin D1 (Homo sapiens, UniProt P11802); test: CDK/cyclin kinase assay, CDK4/cyclin D1
[2] = target: GSK-3β (Oryctolagus cuniculus, UniProt G1T8E2); test: GSK-3β kinase assay (phosphorylation of CREB phosphopeptide); format: biochemical, rabbit; details: read-out: Kinase inhibition IC50 GSK3β
Method: GSK-3 was obtained from New England Biolabs (UK) Ltd., Hitchin, Herts. The recombinant enzyme was isolated from a strain of E. coli that carries a clone expressing GSK-3β derived from a rabbit skeletal muscle cDNA library [Wang, Q. M.; Fiol, C. […] The samples were transferred to 96-well p81 filter plates (Whatman Polyfiltronics, Kent, UK), and the plates were washed 4 times with 200 μL/well of 75 mM aq orthophosphoric acid.

[3] = target: T1, CDK2/cyclin E (Homo sapiens, UniProt P24941); test: CDK/cyclin kinase assay, CDK2/cyclin E; format: biochemical
T1 construct: His6; made in house; host or cells: Sf9 insect cells (baculovirus)

Chain of CDK4/cyclin D1 (P11802 whole entry): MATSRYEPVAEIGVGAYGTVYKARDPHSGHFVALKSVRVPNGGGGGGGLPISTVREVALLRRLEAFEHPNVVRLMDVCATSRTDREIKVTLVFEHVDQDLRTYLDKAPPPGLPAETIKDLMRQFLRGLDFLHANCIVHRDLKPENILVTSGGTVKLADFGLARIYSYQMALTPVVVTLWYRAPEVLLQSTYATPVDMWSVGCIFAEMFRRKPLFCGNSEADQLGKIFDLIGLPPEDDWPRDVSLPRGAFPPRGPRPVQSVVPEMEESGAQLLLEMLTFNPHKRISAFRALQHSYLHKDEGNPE
Chain of CDK4/cyclin D1 (P24385 whole entry partner): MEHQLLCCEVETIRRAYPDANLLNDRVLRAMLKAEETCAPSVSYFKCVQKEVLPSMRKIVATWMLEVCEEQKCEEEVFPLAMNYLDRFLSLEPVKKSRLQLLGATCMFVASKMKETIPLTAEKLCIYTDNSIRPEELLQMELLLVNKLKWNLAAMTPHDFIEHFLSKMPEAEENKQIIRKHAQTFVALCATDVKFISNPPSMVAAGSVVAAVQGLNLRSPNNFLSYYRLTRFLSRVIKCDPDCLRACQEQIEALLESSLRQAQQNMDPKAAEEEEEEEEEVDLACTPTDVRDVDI
Chain of GSK-3β (G1T8E2 1-432): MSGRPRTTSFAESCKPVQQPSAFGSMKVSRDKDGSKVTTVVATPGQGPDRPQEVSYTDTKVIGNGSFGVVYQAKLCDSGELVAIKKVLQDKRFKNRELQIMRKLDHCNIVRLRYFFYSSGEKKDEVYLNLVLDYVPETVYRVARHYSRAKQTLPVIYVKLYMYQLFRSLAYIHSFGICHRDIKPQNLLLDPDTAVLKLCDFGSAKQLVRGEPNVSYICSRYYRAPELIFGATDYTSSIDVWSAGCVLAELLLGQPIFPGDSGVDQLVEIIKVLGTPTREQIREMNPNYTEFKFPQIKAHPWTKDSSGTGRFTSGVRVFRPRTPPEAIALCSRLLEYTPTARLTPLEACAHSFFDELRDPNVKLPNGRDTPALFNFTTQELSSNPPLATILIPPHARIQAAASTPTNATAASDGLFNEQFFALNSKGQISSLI

IC50 [1] [nM]	IC50 [2] [nM]	IC50 [3] [nM]	IC50 ([3]; read-out: Kinase inhibition IC50 CDK2/E) [nM]	SMILES
220	800	–	–	Cc1[nH]c([N+](=O)[O-])c(C)c1-c1ccnc(Nc2ccc(F)cc2)n1 [Compound 14, [4-(2,4-Dimethyl-5-nitro-1H-pyrrole-3-yl)-pyrimidin-2-yl]-(4-fluoro-phenyl)-amine]
–	3200	550	–	Cc1[nH]c(Br)c(C)c1-c1ccnc(Nc2ccc(F)cc2)n1 [Compound 16, [4-(5-Bromo-2,4-dimethyl-1H-pyrrole-3-yl)-pyrimidin-2-yl]-(4-fluoro-phenyl)-amine]
–	2500	–	–	Cc1[nH]c(Cl)c(C)c1-c1ccnc(Nc2ccc(F)cc2)n1 [Compound 18, [4-(5-Chloro-2,4-dimethyl-1H-pyrrole-3-yl)-pyrimidin-2-yl]-(4-fluoro-phenyl)-amine]
4500	14000	–	140	Cc1[nH]c(CN(C)C)c(C)c1-c1ccnc(Nc2ccc(F)cc2)n1 [Compound 19, [4-(5-Dimethylaminomethyl-2,4-dimethyl-1H-pyrrole-3-yl)-pyrimidin-2-yl]-(4-fluoro-phenyl)-amine]
360	–	–	–	Cc1cc(Nc2nccc(-c3c(C)[nH]c(C#N)c3C)n2)ccc1F [Compound 11, 4-[2-(4-Fluoro-3-methyl-phenylamino)-pyrimidin-4-yl]-3,5-dimethyl-1H-pyrrole-2-carbonitrile]
–	50	–	–	Cc1[nH]c(C(N)=O)c(C)c1-c1ccnc(Nc2ccc(F)cc2)n1 [Compound 13, 4-[2-(4-Fluoro-phenylamino)-pyrimidin-4-yl]-3,5-dimethyl-1H-pyrrole-2-carboxylic acid amide]

Like-named read-outs stand apart in the source and are kept apart here.
